Test results as given in the RNAGym collection of RNA variant scans (doi:10.1073/pnas.2313332121).
Variants at the floor of the assay are shown more often than the library holds them.

B1: TPR 5TU (parent)
chain: GGAUCUUCUCGAUCUAACAAAAAAGACAAAUCUGCCACAAAGCUUGAGAGCAUCUUCGGAUGCAGAGGCGGCAGCCUUCGGUGGCGCGAUAGCGCCAACGUUCUCAACUAUGACACGCAAAACGCGUGCUCCGUUGAAUGGAGUUUAUCAUG

Variants of: B1
Experiment: polymerase ribozyme fitness, log enrichment relative to wild type (log ratio); higher = more active; in vitro selection for triplet polymerase activity
In short: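 Each subunit of a heterodimeric triplet polymerase ribozyme was mutagenized into a library by PCR, transcribed, and subjected to one round of in vitro selection, run in triplicate. Libraries were annealed with a biotinylated primer, the partner subunit and triplets, incubated frozen at −7 °C, and extended constructs were gel-excised, captured on streptavidin beads and recovered by RT-PCR. Input and output libraries were sequenced on Illumina, keeping genotypes with ≥10 input reads and ≥1 read per output. Fitness is log base 2 of genotype enrichment divided by wild-type enrichment, from inverse-variance-weighted replicate averages.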

| Variant | polymerase ribozyme fitness (log ratio) |
| --- | --- |
| GGAUCUUCUCGAUCUAACAAAAAAGUCAAAUCUGCCACAAAGCUUGAGAGCAUCUUCGGAUGCAGAGGCGGCAGCCUUCGGUGGCGCGAUAGCCCUAACGUUGUCAACUAUGACACGCAAAACGCGUGCUCCGUUGAAUGGAGUUUAUCAGG | ≤ -4.2 |
| GGAUCUUCUCGAUCUAACAAAAAAGUCAAAUCUGCCACAAAGCUUGAGACCAUCUUCGGAUGCAGAGGCGGCAGCCUUCGGUGGCGCGAUCGCGCCAACGUUCUCAACUAUGACACGCAAAACGCGUUCUCCGUUGAAUGGAGUUUAUCAUG | ≤ -4.2 |
| GGAUCUUCUCGAUCUAACAAAAAAGUCAAAUCUGCCACAAAGCUUGAGAGCAACUUCGGAUGCAGAGGCGGCAGCCUUCGGUGGCGCGAUUGCGCCAACGUUCACAACUAUGACACGCAAAACGCGUGCUCCGUUGAAUGGAGUUUAUCAUG | ≤ -4.2 |
| GGAUCUUCUCGAUCUAACAAAAAAGUCAAAUCUGCCACAAAGCUUGAGAGCAUCUUCGUAUGCAGAGGCGGCAGCCUUCGGUGGCGCGAUAGCGCCAACGUUCUCAACUAUGACACGCAAAACGCGUGCUCCGUUGAAUGAAGUUUAUCCUG | ≤ -4.2 |
| GGAUCUUCUCGAUCUAACAAAAAAGUCAAAUCUGCCACAAAGCUUGAGAGCAUCUUCGGAUGCAGAGGCGGCAGCCUUCGGUGGAGCGAUAGCGCCAACGUUCUCAACUAUGAUACGCAAAACGCGUGCUCCGUUGAAUGGAGUUUAUCAUG | ≤ -4.2 |
| GGAUCUUCUCGAUCUAACAAAAAAGUCAAAACUGCCACAAAGCUUGAGAGCAUCUUCGGAUGCAGAGGCGGCAGCCUUCGGUGGCUCGAUAGCGCCAACGUUCUCAACUAUGACACGCAAAACGCGUGCUCCGUUGAAUGGAGUUUCUCAUG | ≤ -4.2 |
| GGAUCUUCUCGAUCUAACAAAAAAGUCAAAUCUGCCACAAAGCAUGAGAGCACCUUCGGAUCCAGAGCUGGCAGCCUUCGGUGGCGCGAUAGUGCCAACGUUCUCUACUAUGACACGCAAAACGCGUGCUCCGUUGAAUGGUGUUUAUCAUG | ≤ -4.2 |
| GGAUCUUCUCGAUCUAACAAAAAAGUCAAAUCUGCCACAAAGCUUGAGAGCAUCUUUGGAUGCAGAGGCGGCAGCCUUCGGUGGCGCGAUAGCGCCAACGUUCUCAACUAUGACACGGAAAACGCGUGCUCCGUUGAAUGGAGCUUAUCAUG | ≤ -4.2 |
| GGAUCUUCUCGAUCUAACAAAAAAGUCAAAUCUGCCACAAAGCUUGAGAGCAUCUUCGGAUGCAGAGGCGGCAGCCUUCGGUGGCGCGAUAGUGCCAACGUUCUCAACUAUGACACUCAAAACGCGUGCUCCGUUGCAUGGAGUUUAUCAUG | ≤ -4.2 |
| GGAUCUUCUCGAUCUAACAAAAAAGUCAAAUCUGCCACAAAGCUUGAGAGCAUCUUCGGAUGCAGAGGCGGCAGCCUUCGGUGACGCGAUAGCGCCAACGUUCUCAACUAUGACACGAAAAACGCGUGCUCCGUUGAAUGGAGUUUAUCAUG | -3.09 |
| GGAUCUUCUCGAUCUAACAAAAAAGUCAAAUCUGCCACAAAGCUAGAGAGCAUCGUCGGAUGCAGAGGCGGCAGCCUUCGGUGCCGCGAUGGCGCCAACGUUCUCAACUAUGACACGCAAAACGCGUGCUCCGUUGAAUGGAGUUUAUCCUG | ≤ -4.2 |
| GGAUCUUCUCGAUCUAACAAAAAAGUCAAAUCUUCCACAAAGCUUGAGAGCAUCUUCGGAUGCAGAGGCGGCAGCCUUCGGUGGCGCGAUAGCGCCAACGUUCUCAACUAUGACACGCAAAACGCGUGCUCCGUUGAAUGGAGUUUAUCAUG | ≤ -4.2 |
| GGAUCUUCUCGAUCUAACAAAAAAGUCAAAUCUGCCACAAAGCUUGAGAGCAUCUUCGGAUGCAGAGGGGGCAGCCUUCGGUGGCGCGAUGGCGCCAACGUUCUCAACUAUGACACGCAAAACGCGUGCUCCGUUGAAUGGAGUUUAUCAUG | ≤ -4.2 |
| GGAUCUUCUCGAUCUAACAAAAAAGUCAAAUCUGCCACAAAGCUUGAGAGCAUCUUCGGAUGCAGAGGCGGCAGCAUUCGGUGGCGUGAUAUCGCCAACGUUCUCAACUAUGACACGCAAAACGCGUGCUCCGUUGAAUUGAGUUUAUCAUG | ≤ -4.2 |
| GGAUCUUCUCGAUCUAACAAAAAAGUCAAAUCGGCCACAAAGCUUGAGAGCAUCUUCGGAUGCAGAGGCGGCAGCCUUCGGUGGCGCGAUAACGUCAACGUUCUCAACUAUGACACGCAAAACGCGUGCUCCGGUGAAUGGAGUUUAUCAUG | ≤ -4.2 |
| GGAUCUUCUCGAUCUAACAAAAAAGUCAAAUCUGCCACAAAGCUUGAGAGCAUCUUCGGAUACAGAGGCGGCAGCCUUCGGUGACGCGAUAGCGCCAACGUUCUACACUAUGACACGCAAAACGCAUGCUCCGUUGAAUGGAGUUUAUCAUG | ≤ -4.2 |
| GGAUCUUCUCGAUCUAACAAAAAAGUCAAAUCUGCCACAAAGCUUGAGAGCAUCUUCGGAUGCAGAGGUGGCAGCCUUCGGUGGCGCGAGAGCGCCAACGUUCUCAUCUAUGACACGCAAAACGCGUGCUCCGUUGAAUGGAGUUUAUCAUG | ≤ -4.2 |
| GGAUCUUCUCGAUCUAACAAAAAAGUCAAAUCUGCCACAAAGCUUGAGAGCAUCUUCGGAUGCAGAGGCGGCAGCCUUCGGUGUCUCGAUAGCGCCAACGUUCUCAACUAUGACACGCAAAACGCGUGCUCCGUUUAAUGGAGUUUAGCAUG | ≤ -4.2 |
| GGAUCUUCUCGAUCUAACAAAAAAGUCAAAUCUGCCACAAAGCUUGAGAGCAUCUUUGGAUGCAGAGGCGGCAGCCUUCGGUGGCGUGAUAGCGCCAACGUUCUCUACUAUGACACGCAAAACGCGUGCUCCGUUGAAUAGAGUUUAUCAUG | ≤ -4.2 |
